Data taken from PubChem BioAssay AID588501 (NMMLSC, 2011).
Screen size: about 360,000 compounds; about 420 (0.12%) were called active. The inconclusive results got no clear call from the source; some entries with a clear call stand among them for comparison. Rule as the data show it: active = inhibition above about 30%; inconclusive = no clear call, values can overlap the other calls; inactive = below that.

What follows are compounds tested against Lethal factor (Bacillus anthracis) (UniProt P15917) (assay: anthrax lethal factor cleavage blockers – biochemical, multiplex microsphere, MLPCN library, primary screen (AID 588501; also: plate controls were buffer without enzyme for full effect and enzyme alone for no effect)). Details: multiplex microsphere protease cleavage assay, LF; at 10 µM; hits give high values.
Chain of UniProt P15917 (P15917 whole entry, looked up): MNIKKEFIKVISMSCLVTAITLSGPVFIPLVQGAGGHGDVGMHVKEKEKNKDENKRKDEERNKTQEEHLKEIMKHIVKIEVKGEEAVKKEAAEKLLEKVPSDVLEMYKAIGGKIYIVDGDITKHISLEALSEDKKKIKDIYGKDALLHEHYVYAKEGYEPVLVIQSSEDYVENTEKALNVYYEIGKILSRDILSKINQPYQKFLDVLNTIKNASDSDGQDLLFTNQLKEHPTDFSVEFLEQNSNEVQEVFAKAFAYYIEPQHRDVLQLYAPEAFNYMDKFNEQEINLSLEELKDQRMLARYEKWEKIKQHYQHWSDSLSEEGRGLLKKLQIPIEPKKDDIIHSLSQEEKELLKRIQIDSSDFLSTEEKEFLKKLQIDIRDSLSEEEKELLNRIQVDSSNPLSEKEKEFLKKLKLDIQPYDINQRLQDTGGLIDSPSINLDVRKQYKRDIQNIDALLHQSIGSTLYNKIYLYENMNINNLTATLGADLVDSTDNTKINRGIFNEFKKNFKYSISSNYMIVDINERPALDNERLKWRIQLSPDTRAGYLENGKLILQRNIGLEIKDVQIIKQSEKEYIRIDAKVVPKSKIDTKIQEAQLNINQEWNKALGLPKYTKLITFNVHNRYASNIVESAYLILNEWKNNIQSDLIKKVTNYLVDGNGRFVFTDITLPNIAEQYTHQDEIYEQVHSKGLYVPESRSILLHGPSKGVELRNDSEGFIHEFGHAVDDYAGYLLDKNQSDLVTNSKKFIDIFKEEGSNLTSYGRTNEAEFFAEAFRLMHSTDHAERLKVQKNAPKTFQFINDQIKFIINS

Compound	inhibition
CCOC(=O)CSc1nc2sc3c(c2c(=O)n1C1CCCCC1)CCN(C)C3	active: 48.6%
CCn1c(SCC(=O)Nc2ccc(C(=O)OC)cc2)nnc1-c1cccs1	inactive: -8.3%
CN1C(=O)C(=Cc2ccc(N3CCCCCC3)o2)C(=O)N(C)C1=S	active: 30.3%
COc1ccccc1CNC(=O)COC(=O)C1CCN(S(=O)(=O)c2ccc(C)c(C)c2)CC1	inactive: 1.8%
Cn1c(=O)cc(OCC(=O)NC2CCCCC2)c2ccccc21	inconclusive: 2.8%
O=C(COC(=O)c1ccc(Cl)nc1)Nc1cccnc1Cl	inconclusive: -5.8%
C=CCn1cnc2c(oc3ccccc32)c1=O	active: 35.1%
CCN(C1CCCCC1)S(=O)(=O)CCNC(=O)c1ccccc1	inconclusive: 2.1%
C/C(=N\NC(=O)c1ccccn1)c1ccc(Cl)cc1	inconclusive: 14%
O=C(OCC(=O)N1CCN(S(=O)(=O)c2ccc(Cl)cc2)CC1)c1cccc(OC(F)F)c1	inactive: -2.2%
Cc1cccc(NC(=O)c2cccc(N3C(=O)CCC3=O)c2)c1	inactive: -6.4%
CCNC(=O)CN(c1ccc(C)cc1)S(=O)(=O)c1ccc(SC)cc1	inconclusive: -22.1%
COCCSc1nnc(NC(=O)Cc2ccccc2OC)s1	inconclusive: -3.1%
O=C(O)CC1(CC(=O)Nc2cc3ccccc3cn2)CCCCC1	inconclusive: -9.3%
O=[N+]([O-])c1ccc(N(c2ccccc2)c2ccccc2)cc1	active: 46.7%
CC1CN(CC(=O)NCc2ccc(Cl)cc2)CC(C)O1 (stereo not given)	inactive: 1.8%
O=C1CC(c2ccccc2)Sc2ccccc2N1 (stereo not given)	inconclusive: 9.4%
NC(=O)N/N=C/c1ccc(-c2ccc(S(=O)(=O)Nc3ncccn3)cc2)o1	inconclusive: -7.8%
Cc1ccc(C2=NN(S(=O)(=O)c3ccccc3)C(c3ccco3)C2)cc1 (stereo not given)	inactive: 4%
Cn1ccc(C(=O)NC(=S)N2CCSCC2)n1	inactive: -16.1%

Compound	inhibition
CCOc1ccc(C(=O)COc2ccc(NC(C)=O)cc2)cc1	inactive: -2%
Cc1cccc(C)c1NC(=O)CNC(=O)COC(=O)c1ccc(Cl)s1	inconclusive: -11.1%
C/C(=N/NC(=O)c1cccs1)c1cccs1	inconclusive: -36.8%
CSCCC(NS(=O)(=O)c1ccccc1)C(=O)OCc1cc(=O)oc2cc(O)ccc12 (stereo not given)	inconclusive: 5.1%
COc1ccc(S(=O)(=O)N2CCCC2CNC(=O)C(=O)NCc2ccccn2)cc1 (stereo not given)	inconclusive: -7.5%
O=C(O)c1ccc(NS(=O)(=O)c2cccc(C(=O)Nc3ccc(Br)cc3)c2)cc1	active: 30.7%
COc1ccc(N=Cc2c(O)ccc3ccccc23)cc1	inactive: -1.9%
CCOC(=O)C1CCN(C(=O)COc2ccc3c(C)cc(=O)oc3c2)CC1	inconclusive: -1.2%
O=C(CN1CCOCC1)Nc1ccc(Cl)cn1	active: 31.7%
CCC(C(=O)N1CCN(S(C)(=O)=O)CC1)c1ccccc1 (stereo not given)	inactive: 1.2%
CCN(CC)c1ccc2cc(S(=O)(=O)c3ccc(Cl)cc3)c(=O)oc2c1	active: 42.2%
CC(C)c1ccc(-c2nn[nH]n2)cc1	inconclusive: -41.1%
CC1(C)Cc2nc(N3CCOCC3)c(C#N)cc2CO1	inactive: 0.2%
O=C1NC(=Nc2ccccc2Cl)S/C1=C\c1cccc([N+](=O)[O-])c1	inactive: 1.5%
CCCCN(C(=O)CSc1nnnn1-c1ccccc1OC)C1CCS(=O)(=O)C1 (stereo not given)	inconclusive: -2.1%
COc1ccc(C2(C(=O)NCCCN(C)C)CCOCC2)cc1	inconclusive: -13.2%
CCN1C(=O)/C(=C/N(C)C)c2ccccc21	inactive: 1.8%
O=C(Nc1ccc2nc(-c3cccs3)c(-c3cccs3)nc2c1)N1CCOCC1	active: 41.3%
Cc1ccc(NC(=O)CSCC(=O)NCCc2ccccc2)c(C)c1	inconclusive: -3.9%
CC(C)OC(=O)Cn1c(=O)sc2ccccc21	inconclusive: -31.3%

Compound	inhibition
Cc1ccc(NC(=O)Nc2cccc(Cl)c2)c(C(=O)O)c1	inactive: 1%
CCCCN(C(=O)c1ccc(N2CCCC2=O)cc1)c1c(N)n(CCCC)c(=O)[nH]c1=O	inconclusive: -0.7%
Cc1ccc(NC(=O)CSc2ccccc2)cc1S(=O)(=O)N1CCOCC1	inconclusive: 4.2%
Nc1nc(N2CCOCC2)nc2ccccc12	inactive: 0.9%
COc1ccccc1CN(C(=O)CNC(=O)c1ccco1)C(C(=O)NCC1CCCO1)c1ccccc1 (stereo not given)	inactive: -3.7%
COc1ccc(-c2cc3ccccc3n2CC(O)Cn2nc(C)cc2C)cc1 (stereo not given)	active: 49%
COc1ccc2c(c1)C1C=CCC1C(c1cc3c(cc1Br)OCO3)N2 (stereo not given)	inconclusive: -47.7%
S=C1NCN(Cc2cccnc2)CN1c1cccc2ccccc12	inconclusive: -9.3%
CC(=O)NC(c1ccc(F)c(F)c1)c1nc(-c2ccc3c(c2)OCO3)cs1 (stereo not given)	inactive: -2.7%
O=C(/C=C(O)/C=C/c1ccc(O)cc1)/C=C/c1ccc(O)cc1	active: 31.4%
CCOc1ccc(S(=O)(=O)NCCC(=O)N2CCN(c3ccccc3O)CC2)cc1	inconclusive: 0.3%
Cc1ccc(SCCNC(=O)c2cccc([N+](=O)[O-])c2C)cc1	inconclusive: -4%
O=c1[nH]c(O)c(C=NC2CCCCC2)c(=O)[nH]1	active: 37.3%
COc1ccccc1C(=O)NC(=S)Nc1cccc2cc(O)ccc12	inactive: -1.4%
CCn1c(COc2ccccc2)nnc1SCC(=O)Nc1cc(OC)ccc1OC	inactive: 3.8%
Cc1ccc(C)c(S(=O)(=O)C(C#N)c2nc3ccccc3nc2N2CCOCC2)c1 (stereo not given)	inconclusive: -22%
COc1ccc(C(=O)COC(=O)CCn2nnc(-c3cccs3)n2)cc1	inconclusive: -22.6%
CN(CC(=O)Nc1ccc(C#N)cc1)Cc1ccc(Cl)cc1	inactive: -1.8%
O=C(Nc1ccc(NC(=S)NC(=O)C(c2ccccc2)c2ccccc2)cc1)c1ccccc1	inactive: -8.1%
Cc1cc(C)c2cc(C)c3nnc(SCC(=O)NCc4ccc5c(c4)OCO5)n3c2c1	inconclusive: -12.9%
